{"source": "PubChem BioAssay AID588591", "about": "(National Center for Advancing Translational Sciences (NCATS), 2011)", "note": "About 4,700 (1.2%) of roughly 390,000 compounds were called active. The inconclusive results got no clear call from the source; some entries with a clear call stand among them for comparison. Calls come from the whole dose curve; as a rule, active = well fitted inhibition curve with a large enough effect; inconclusive = small, poorly fitted or top-dose-only effect, or another doubt; inactive = no such curve, though single readings can be large or run the other way. Potencies of inconclusive entries are doubtful fits and often do not repeat. % is set by controls: 0 for no effect and ±100 for the full control effect; potency is the fitted concentration of half-maximal effect; tags give direction and shape of the fitted curve.", "data": [{"target": "DNA polymerase eta (Homo sapiens) (UniProt Q9Y253)", "sequence (Q9Y253 whole entry, looked up)": "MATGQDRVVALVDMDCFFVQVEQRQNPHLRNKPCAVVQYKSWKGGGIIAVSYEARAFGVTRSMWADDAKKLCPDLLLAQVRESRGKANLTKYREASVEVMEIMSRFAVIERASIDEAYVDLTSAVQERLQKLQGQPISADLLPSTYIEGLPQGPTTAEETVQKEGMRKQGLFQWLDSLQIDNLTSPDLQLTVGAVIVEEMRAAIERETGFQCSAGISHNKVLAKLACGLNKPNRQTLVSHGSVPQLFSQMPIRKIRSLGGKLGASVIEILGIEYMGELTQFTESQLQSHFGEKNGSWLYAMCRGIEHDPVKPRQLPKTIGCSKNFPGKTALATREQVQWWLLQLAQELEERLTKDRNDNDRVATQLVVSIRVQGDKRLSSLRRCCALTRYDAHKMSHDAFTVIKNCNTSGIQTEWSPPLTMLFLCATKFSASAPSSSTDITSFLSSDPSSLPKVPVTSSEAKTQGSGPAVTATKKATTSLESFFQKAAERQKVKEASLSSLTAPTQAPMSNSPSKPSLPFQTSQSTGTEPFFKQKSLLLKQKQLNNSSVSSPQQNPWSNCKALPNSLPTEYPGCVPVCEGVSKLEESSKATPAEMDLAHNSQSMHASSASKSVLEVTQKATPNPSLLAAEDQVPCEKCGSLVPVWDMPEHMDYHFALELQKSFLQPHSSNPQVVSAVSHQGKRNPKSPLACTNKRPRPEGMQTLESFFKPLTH", "experiment": "qHTS for Inhibitors of Polymerase Eta", "settings": "recombinant Pol eta, fluorescent DNA replication assay; series mostly up to 114 µM; activity change, negative = inhibition: at the top concentration", "procedure,_shortened": "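Pol eta (10 nM) was preincubated with compounds for 15 min at room temperature, after which fluorescent replication substrate (50 nM final) was added to start the reaction. Fluorescence was read kinetically at 0 and 10 min.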", "values": [{"smiles": "CCn1c(SCC(=O)Nc2nccs2)nnc1-c1cc2cccc(OC)c2o1", "Potency": "inconclusive: 15.8 µM [inhibitor, partial curve, poor fit]"}, {"smiles": "O=C(Nc1ccc2c(c1)CCC2)c1ccccc1F", "Potency": "inconclusive: 100 µM [inhibitor, partial curve, poor fit]"}, {"smiles": "COc1ccc(OC)c(-c2csc(NC(=O)CSc3ccccc3)n2)c1", "Potency": "inconclusive: 25.1 µM [inhibitor, partial curve, poor fit]"}, {"smiles": "CCOc1ccc(S(=O)(=O)Nc2cccc(C(=O)NCC(c3ccccc3)N(C)C)c2)cc1", "note": "(configuration not stated)", "Potency": "inconclusive: 89.1 µM [inhibitor, partial curve, poor fit]"}, {"smiles": "CCc1ccc(N2CC(c3nc4ccccc4n3Cc3ccccc3C)CC2=O)cc1", "note": "(configuration not stated)", "Potency": "inconclusive: 79.4 µM [inhibitor, partial curve, poor fit]"}, {"smiles": "COc1ccc(-c2noc(-c3ccc(NCc4ccco4)c([N+](=O)[O-])c3)n2)cc1OC", "Potency": "inconclusive: 100 µM [inhibitor, single point]"}, {"smiles": "O=C(COC(=O)c1ccc(Cl)c(S(=O)(=O)N2CCOCC2)c1)NCc1ccco1", "activity change, negative = inhibition": "inactive: -5.52%"}, {"smiles": "Cc1cc(C)nc(SCC(=O)NCc2ccco2)n1", "Potency": "inconclusive: 28.2 µM [inhibitor, partial curve, poor fit]"}, {"smiles": "CCc1ccccc1NS(=O)(=O)c1ccc2[nH]cc(C(=O)NC3CCCC3)c(=O)c2c1", "Potency": "inconclusive: 35.5 µM [inhibitor, single point]"}, {"smiles": "O=C(COC(=O)C1=NN(c2ccccc2)C(=O)CC1)Nc1nc(-c2ccc(F)cc2)cs1", "activity change, negative = inhibition": "inactive: -19.4%"}, {"smiles": "COc1cccc2c1C(=O)c1ccc3ccccc3c1C2=O", "Potency": "inconclusive: 3.16 µM [inhibitor, full curve]"}, {"smiles": "CCc1nnc(NC(=O)c2oc3cc(C)c(C)cc3c2C)s1", "Potency": "inconclusive: 25.1 µM [inhibitor, partial curve, poor fit]"}, {"smiles": "Cc1nc(COC(=O)c2c(C)nn(-c3ccccc3)c2C)cs1", "Potency": "inconclusive: 89.1 µM [inhibitor, partial curve, poor fit]"}, {"smiles": "COc1ccc2[nH]c(-c3ccccc3)cc2c1", "Potency": "inconclusive: 22.4 µM [inhibitor, full curve, poor fit]"}, {"smiles": "CC(C)N(C(=O)Cn1cc(S(=O)(=O)CC(=O)Nc2ccccc2)c2ccccc21)C(C)C", "Potency": "inconclusive: 79.4 µM [inhibitor, partial curve, poor fit]"}, {"smiles": "CCCC(=O)Nc1ccc(-c2ccc(NC(=O)CCC)cc2)cc1", "Potency": "inconclusive: 28.2 µM [inhibitor, single point]"}, {"smiles": "C=C1C(=O)OC2C=C(CO)CCC=C(CO)CC(OC(=O)C(C)C)C12", "note": "(configuration not stated)", "Potency": "inconclusive: 15.8 µM [inhibitor, partial curve, poor fit]"}, {"smiles": "O=C(CCN1C(=O)/C(=C/c2ccc(Cl)cc2)SC1=S)Nc1cccc(C(=O)O)c1", "Potency": "active: 89.1 µM"}, {"smiles": "O=C(/C=C/c1cccs1)Nc1scc(-c2ccccc2)c1C(=O)O", "Potency": "active: 79.4 µM"}, {"smiles": "O=C1c2ccc(Oc3ccc4c(c3)C(=O)N(CCCO)C4=O)cc2C(=O)N1CCCO", "Potency": "inconclusive: 31.6 µM [inhibitor, partial curve, poor fit]"}, {"smiles": "O=C(Cn1c(-c2cccs2)cc2ccccc21)NCCCN1CCN(c2ccc(F)cc2)CC1", "Potency": "inconclusive: 89.1 µM [inhibitor, partial curve, poor fit]"}, {"smiles": "CCN(c1ccccc1)S(=O)(=O)c1cc(C(=O)Nc2cccc(Cl)c2)ccc1F", "Potency": "inconclusive: 56.2 µM [inhibitor, partial curve, poor fit]"}, {"smiles": "O=C(C=Cc1ccco1)c1cc(Cl)ccc1O", "Potency": "inconclusive: 28.2 µM [inhibitor, single point]"}, {"smiles": "C/C(=N/NC(=O)c1cc(O)c(O)c(O)c1)c1ccc([N+](=O)[O-])cc1", "Potency": "active: 14.1 µM"}, {"smiles": "Cc1cccc(S(=O)(=O)c2cn(Cc3ccc(F)cc3)c3cc(N4CCOCC4)c(F)cc3c2=O)c1", "activity change, negative = inhibition": "inactive: -19.3%"}, {"smiles": "COc1ccc(CNC(=O)C(c2ccc(C)o2)N(C(=O)c2csnn2)c2ccc(C(C)C)cc2)cc1", "note": "(configuration not stated)", "Potency": "inconclusive: 50.1 µM [inhibitor, partial curve, poor fit]"}, {"smiles": "COc1ccc(NC(=S)NCCSc2ccc(Cl)cc2)c(OC)c1", "Potency": "inconclusive: 50.1 µM [inhibitor, partial curve, poor fit]"}, {"smiles": "COc1ccc(CNC(=O)CSc2nnc(C)n2-c2ccc(F)cc2)cc1", "Potency": "inconclusive: 100 µM [inhibitor, partial curve, poor fit]"}, {"smiles": "C=CCN(c1ccccc1)S(=O)(=O)c1cccc(C(=O)O)c1", "activity change, negative = inhibition": "inactive: -10.1%"}, {"smiles": "CCOC(=O)N1CCN(Cc2cc(=O)oc3ccc4ccccc4c23)CC1", "Potency": "inconclusive: 35.5 µM [inhibitor, partial curve, poor fit]"}, {"smiles": "CC(=O)N(C)c1ccc(NC(=O)Cc2cccs2)cc1", "Potency": "inconclusive: 12.6 µM [inhibitor, full curve, poor fit]"}, {"smiles": "Cc1ccc(/C=C/C(=O)N2CC(C)CC(C)C2)o1", "note": "(configuration not stated)", "Potency": "inconclusive: 31.6 µM [inhibitor, single point]"}, {"smiles": "CCc1nnc(NC(=O)c2nc(SCc3ccc(F)cc3)ncc2Cl)s1", "activity change, negative = inhibition": "inactive: -8.45%"}, {"smiles": "O=C(CCSCc1cccc(Cl)c1)NCCc1ccccc1", "activity change, negative = inhibition": "inactive: -13.7%"}, {"smiles": "O=C(NCc1ccco1)c1ccc(Cl)nc1", "Potency": "inconclusive: 50.1 µM [inhibitor, partial curve]"}, {"smiles": "COc1cc([N+](=O)[O-])ccc1-c1ccc(C(=O)Nc2ccc(NC(C)=O)cc2)o1", "Potency": "inconclusive: 12.6 µM [inhibitor, partial curve, poor fit]"}, {"smiles": "COc1ccc(C(c2nnnn2CC2CCCO2)N2CCC(C(N)=O)CC2)cc1", "note": "(configuration not stated)", "Potency": "inconclusive: 89.1 µM [inhibitor, partial curve, poor fit]"}, {"smiles": "CCCC(=O)N1CCN(c2ccc(NC(=O)c3sc4ccccc4c3Cl)cc2)CC1", "Potency": "inconclusive: 22.4 µM [inhibitor, partial curve, poor fit]"}, {"smiles": "N#CC1=C2SCN(C3CCCCC3)CN2C(=O)CC1c1ccc(Br)cc1", "note": "(configuration not stated)", "Potency": "inconclusive: 100 µM [inhibitor, partial curve, poor fit]"}, {"smiles": "Cc1ccc(C)n1-c1sc2c(c1C(=O)O)CCCC2", "Potency": "active: 7.94 µM"}, {"smiles": "COc1ccc2c(Cl)c(-c3nnc(SCC(=O)c4ccccc4)n3C)sc2c1", "Potency": "inconclusive: 39.8 µM [inhibitor, partial curve, poor fit]"}, {"smiles": "CC(C)(C)c1cccc(Cn2nnc3ccccc32)c1O", "Potency": "inconclusive: 79.4 µM [inhibitor, partial curve, poor fit]"}, {"smiles": "O=C(O)C1CCc2sc3[nH]c(=S)n(-c4ccccc4)c(=O)c3c21", "note": "(configuration not stated)", "Potency": "inconclusive: 39.8 µM [inhibitor, partial curve]"}, {"smiles": "CCOC(=O)c1c(NC(=O)CN(C)C2CCN(C)CC2)sc(C(=O)Nc2ccccc2)c1C", "Potency": "inconclusive: 100 µM [inhibitor, partial curve, poor fit]"}, {"smiles": "NC(=O)c1ccc(NC(=O)COC(=O)CCN=C2NS(=O)(=O)c3ccccc32)cc1", "activity change, negative = inhibition": "inactive: -18.6%"}, {"smiles": "O=C(Nc1nc2n(n1)C(c1ccccc1)C=C(c1ccccc1)N2)c1ccccc1", "note": "(configuration not stated)", "activity change, negative = inhibition": "inactive: -3.94%"}, {"smiles": "CN(C)c1ccc(NC(=O)c2ccc3nc[nH]c3c2)cc1", "Potency": "inconclusive: 35.5 µM [inhibitor, partial curve, poor fit]"}, {"smiles": "COc1ccccc1CCNC(=O)C(=O)NCCC1CCCCN1S(=O)(=O)c1ccccc1", "note": "(configuration not stated)", "Potency": "inconclusive: 3.98 µM [inhibitor, full curve, poor fit]"}, {"smiles": "CC1=C(C(=O)Nc2ccccc2)C(c2ccc(C)cc2)n2nc(SCc3ccccc3C)nc2N1", "note": "(configuration not stated)", "activity change, negative = inhibition": "inactive: -12.8%"}, {"smiles": "Cc1ccc(CN2CC(C(=O)N3CCN(c4ccccc4O)CC3)CC2=O)cc1", "note": "(configuration not stated)", "activity change, negative = inhibition": "inactive: -11.8%"}, {"smiles": "Cc1ccc(NC(=O)CN2C(=O)COc3ccc(S(=O)(=O)N4CCCCCC4)cc32)cc1Cl", "activity change, negative = inhibition": "inactive: -18.5%"}, {"smiles": "COc1ccc(N=C2SC(C(N)=O)CC(=O)N2CCc2ccc(OC)c(OC)c2)cc1", "note": "(configuration not stated)", "Potency": "inconclusive: 25.1 µM [inhibitor, single point]"}, {"smiles": "Cc1cccc(C)c1NC(=O)COC(=O)c1cccc2c1C(=O)c1ccccc1C2=O", "Potency": "inconclusive: 20 µM [inhibitor, partial curve, poor fit]"}, {"smiles": "CCCCn1c(=NC(=O)C(C)(C)Oc2ccc(Cl)cc2)c(C(=O)OCC)cc2c(=O)n3ccccc3nc21", "Potency": "inconclusive: 89.1 µM [inhibitor, partial curve, poor fit]"}, {"smiles": "Cc1ccccc1OCC(=O)Nc1cccc2nsnc12", "Potency": "inconclusive: 20 µM [inhibitor, single point]"}, {"smiles": "COc1ccc(CNC(=O)c2cc3cc4ccc(C)cc4nc3o2)cc1", "activity change, negative = inhibition": "inactive: -14.7%"}, {"smiles": "COc1ccc2cc(C3CC(c4ccco4)=NN3C(=O)CCC(=O)O)c(Cl)nc2c1", "note": "(configuration not stated)", "Potency": "inconclusive: 25.1 µM [inhibitor, single point]"}, {"smiles": "COCCNC(=O)/C(C#N)=C/c1cn(CC(=O)NCc2ccco2)c2ccccc12", "Potency": "inconclusive: 79.4 µM [inhibitor, partial curve]"}, {"smiles": "C/C=C/c1ccc(OCC(=O)OCC(=O)NC2CC2)c(OC)c1", "Potency": "inconclusive: 35.5 µM [inhibitor, full curve]"}, {"smiles": "Cc1ccccc1NC(=O)c1cn(-c2ccccc2)nc1-c1ccccc1", "Potency": "inconclusive: 50.1 µM [inhibitor, partial curve, poor fit]"}, {"smiles": "O=C(NCCCNc1ccc(C(F)(F)F)cc1[N+](=O)[O-])c1cc(F)c(F)cc1Cl", "Potency": "inconclusive: 35.5 µM [inhibitor, partial curve, poor fit]"}, {"smiles": "CCc1ccc(C(=O)CCC(=O)Nc2cccc(S(=O)(=O)N3CCCCC3)c2)cc1", "Potency": "inconclusive: 89.1 µM [inhibitor, partial curve, poor fit]"}]}]}
